The values that follow come from the supplement of paper PMC11417369.

± gives the standard deviation of the averaged measurements. The list shows a part of the results.

This assay deals with PfAP2-G AP2 domain (GST-tagged). The assay is described as follows: gcPBM binding intensity (ln(normalized median fluorescence intensity)); higher = stronger DNA binding. The gist of the method: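 For binding intensity, the highest Masliner-normalised natural-log median intensity across replicate spots of either probe orientation was taken. Protein bound to the array was stained with Alexa488 anti-GST antibody and scanned at 488 nm. The protein, GST-tagged P. falciparum DNA-binding domains from E. coli at about 25 μg on average, had been applied for 1 h to an Agilent 4 × 180k array of primer-extended double-stranded 36-bp intergenic genomic probes and negative controls.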
As to “AGTAATAGTTTGTGCACACTCAAGTATATCATAGAT [CACACA_site6082]”, the “gcPBM binding intensity (ln)” value is 10.6 ± 0.34.

For “TACATATATACATACACACACATATAACCAATGTAG [CACACA_site2192]”, the “gcPBM binding intensity (ln)” value came to 10.2 ± 0.14.

For the sequence “TTTCGCTTTATTTATGCATGCAAATAAGTTGATATT [TGCATGCA_site724]”, the “gcPBM binding intensity (ln)” value turned out to be 9.84 ± 0.17.

“ATTTTTGTAAATACATGTACATATATATGCATATCC [XGTACX_site6353]”: the “gcPBM binding intensity (ln)” value is 11.3 ± 0.56.

For “AAAATTAAAATAGTAATACACACTTCATAGGAAATG [CACACA_site1762]”, the “gcPBM binding intensity (ln)” value was determined as 10.06 ± 0.078.

In the case of “AACAAGAAATAATCACGTACACATTATAATAACTAA [XGTACX_site8184]”, the “gcPBM binding intensity (ln)” value was found to be 11.5 ± 0.9.

“CTTTAATATTTTATTTCACACACATAAATGCCCCAA [CACACA_site8569]”: the “gcPBM binding intensity (ln)” value worked out at 10.4 ± 0.41.

For “AAAAAAAAAGATCACACACACATAAATATAAACAAA [CACACA_site5285]”, the “gcPBM binding intensity (ln)” value was 9.995 ± 0.007.

For “TGATATTATTATAAGGTGCTTAAAAATAAAGATAAT [GTGCAC_site9539]”, the “gcPBM binding intensity (ln)” value stood at 9.88 ± 0.2.

With “AAAAAAAAAAAAAAAAAAAAAAAAAAAAGTTAAAAA [TGCATGCA_negctrl_site74]”, the “gcPBM binding intensity (ln)” value was found to be 10.9 ± 0.4.

In the case of “AGAATTTTAGATTTAGCACACATTTTTTTTTTTTTT [CACACA_site4081]”, the “gcPBM binding intensity (ln)” value was 9.955 ± 0.049.

Consider “ACTCGCATATTTAAATGTACTTAATTAGAAGAAAAA [XGTACX_site3304]”, for which the “gcPBM binding intensity (ln)” value is 11.1 ± 0.69.

As for “ATATAAAATAATAAGGGTACAGGTCTCTGCGATGTT [XGTACX_site786]”, the “gcPBM binding intensity (ln)” value worked out at 11.3 ± 0.81.

In the case of “TAAAATATTGTTATTACATGCAACCTTATGAAAAAT [TGCATGCA_site706]”, the “gcPBM binding intensity (ln)” value amounted to 9.99 ± 0.15.

Consider “AATAACTTTTTGAGATGTACATTTTTAATTCGTAGA [XGTACX_site8455]”, for which the “gcPBM binding intensity (ln)” value came out at 11.2 ± 0.83.

With “ATTCATAAAAAGAGGTGTACATTAATATAATATATA [XGTACX_site8283]”, the “gcPBM binding intensity (ln)” value was found to be 11.5 ± 0.95.

Consider “TTATTCGAACAAAGGAAAAAATATATTCAAAGGAAA [TGCATGCA_negctrl_site215]”, for which the “gcPBM binding intensity (ln)” value was 9.73 ± 0.11.

With “AACTTGTGTGGATATTGTACTAACAATATGTATGAT [XGTACX_site6302]”, the “gcPBM binding intensity (ln)” value is 11 ± 0.72.

As to “AATAGTGTATAAATTTGTACATATAATTAAAAGGAA [XGTACX_site1143]”, the “gcPBM binding intensity (ln)” value came out at 11 ± 0.67.

For “ACTTTAATAATTCACTTATTTTCTTATTATATTATT [CACACA_negctrl_site556]”, the “gcPBM binding intensity (ln)” value was determined as 9.8 ± 0.21.

On to “GGATTTATTTTATATACACACATACCTATATTTATA [CACACA_site7084]”, for which the “gcPBM binding intensity (ln)” value came to 9.91 ± 0.028.

With “TTTTTAACTAACATATCAATTCCATACGTCGTCAAA [CACACA_negctrl_site560]”, the “gcPBM binding intensity (ln)” value stood at 9.98 ± 0.099.

Consider “TTTAAAAATTTGATCAAACACACGTTGCATAAATTA [CACACA_site3945]”, for which the “gcPBM binding intensity (ln)” value turned out to be 10.1 ± 0.14.

For “TTTTGTCTTCAAATCAAATGTATATAAAAAAAATAC [CACACA_negctrl_site1717]”, the “gcPBM binding intensity (ln)” value was found to be 10.1 ± 0.27.

In the case of “TCTATATAATACCAATGTACATAGTTTTAAGCATAA [XGTACX_site1889]”, the “gcPBM binding intensity (ln)” value was found to be 10.8 ± 0.49.

In the case of “AGGATATGCAGACACACACACATATAGATTTATATA [CACACA_site7100]”, the “gcPBM binding intensity (ln)” value is 9.96 ± 0.13.

Consider “AAAACAAAAATATAAACACACATACATTGGTTTTCT [CACACA_site5405]”, for which the “gcPBM binding intensity (ln)” value was 9.85 ± 0.16.

For the sequence “ATAATATAAACATACACACACACATATATATATATA [CACACA_site5591]”, the “gcPBM binding intensity (ln)” value stood at 10.1 ± 0.23.

“ATAAATTGTAAAATGTGTACGCAGATATTGCGTATT [XGTACX_site332]”: the “gcPBM binding intensity (ln)” value was found to be 11.5 ± 0.93.

On to “AAAAAAATTAATGTGTGTACTTAGATATAATGTTTA [XGTACX_site8862]”, for which the “gcPBM binding intensity (ln)” value turned out to be 11.3 ± 0.8.

With “TAATTTTTTTTTTATTGTACTTAATATTTTTAATTT [XGTACX_site5929]”, the “gcPBM binding intensity (ln)” value was determined as 11.3 ± 0.8.

“CATAAAAATGGATACACACACATAATATATATATAT [CACACA_site3619]”: the “gcPBM binding intensity (ln)” value was 10.2 ± 0.3.

As for “TATTTTTTTTTTTTTTTTTTTACCTTTCCACTCAAA [CACACA_negctrl_site1454]”, the “gcPBM binding intensity (ln)” value stood at 9.84 ± 0.34.

As to “TCATTCTAAATATAAACACACATAAATATGTACATT [CACACA_site7555]”, the “gcPBM binding intensity (ln)” value was found to be 11.2 ± 0.9.

On to “TTTTTTTTTTTTAAAAGTACATAGTAGTAATTATAG [XGTACX_site4232]”, for which the “gcPBM binding intensity (ln)” value was 11.3 ± 0.95.

“TTACAAATATTATAAAGTACAAACCAGTAGATTTTG [XGTACX_site2272]”: the “gcPBM binding intensity (ln)” value came out at 11 ± 0.7.

Turning to “TTTTTTTTTTTTAATGCACACAGTGAACTTTTACTT [CACACA_site3567]”, the “gcPBM binding intensity (ln)” value came out at 10.2 ± 0.4.

On to “GACATTTCTTGGGATACATGCATGTCCCAGAACAAA [TGCATGCA_site271]”, for which the “gcPBM binding intensity (ln)” value worked out at 10.6 ± 0.4.

In the case of “TTTAATAAATTGTGTACACAAAACATATAAATTTCG [CACACA_site5644]”, the “gcPBM binding intensity (ln)” value is 11.6 ± 0.89.

As to “ATTTCATACAGACACACACACAAACAAACATATATA [CACACA_site979]”, the “gcPBM binding intensity (ln)” value was found to be 10.2 ± 0.22.

Turning to “GTGAAGGTTTATATGTGTACATATATGTATTATATA [XGTACX_site326]”, the “gcPBM binding intensity (ln)” value worked out at 11.4 ± 0.73.

Take “ATTATATATACATATACACACATACGTACATACATA [CACACA_site9194]”: the “gcPBM binding intensity (ln)” value came to 11.5 ± 0.93.

Regarding “TTATTATTCATATATTCACACATTAAAATTTTTCAA [CACACA_site4243]”, the “gcPBM binding intensity (ln)” value amounted to 9.85 ± 0.028.

For the sequence “CATATATAATAATATTGTACATATATAATAATAATA [XGTACX_site3338]”, the “gcPBM binding intensity (ln)” value is 10.9 ± 0.6.

As for “ATTATCAAGACATTGCGTACTTAAAAAAAAAAAAAT [XGTACX_site6347]”, the “gcPBM binding intensity (ln)” value is 11.4 ± 0.93.

For the sequence “TTTATTTATTTATTCTTATTTTTTTTTTTTTTTACT [CACACA_negctrl_site257]”, the “gcPBM binding intensity (ln)” value came out at 9.425 ± 0.064.

Turning to “ACATATTAGGGTCATGAACACACAAAAAAAAAAAAA [CACACA_site8218]”, the “gcPBM binding intensity (ln)” value was 10.4 ± 0.57.

For “TATAAATAAATAAACACACACAAATAAAATAAAAAA [CACACA_site7623]”, the “gcPBM binding intensity (ln)” value came to 9.915 ± 0.021.

As for “TTTTTTTGCCATATTACACACACACCGGTAAACCCC [CACACA_site8475]”, the “gcPBM binding intensity (ln)” value was determined as 10.7 ± 0.61.

For “TAATACATAAATGATTGTACATAAGAATTGAAACAT [XGTACX_site4583]”, the “gcPBM binding intensity (ln)” value worked out at 10.9 ± 0.47.

As to “ATGAAGATTTAAAAATGTACATATGATCTATGTCCT [XGTACX_site8409]”, the “gcPBM binding intensity (ln)” value is 10.8 ± 0.39.

On to “AATTCAGCTTTACAACGTACACAATCATATGTCTAT [XGTACX_site8113]”, for which the “gcPBM binding intensity (ln)” value was 11.3 ± 0.93.

On to “TATGACACTTTGAAGGGTACATGCAGAAAAAAAAAA [XGTACX_site569]”, for which the “gcPBM binding intensity (ln)” value is 11.1 ± 0.74.

As to “ATATATACATATACTATATCTTTTATTTTTATTATT [GTGCAC_negctrl_site127]”, the “gcPBM binding intensity (ln)” value was 9.74 ± 0.27.

Take “TTATATGCACTTTTTGCACACGTATGAATAACAAAA [CACACA_site1811]”: the “gcPBM binding intensity (ln)” value was 10.7 ± 0.49.

In the case of “TCTAGGAAAAATTATAGTACACAAAAATATATATAT [XGTACX_site4136]”, the “gcPBM binding intensity (ln)” value came to 11.3 ± 0.8.
